The list shows a part of the results.
system: PfSIP2 AP2 domain 1 (GST-tagged); assay: gcPBM binding intensity (ln(normalized median fluorescence intensity)); higher = stronger DNA binding
How it was run: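 After 1 h on an Agilent 4 × 180k array of primer-extended double-stranded 36-bp intergenic genomic probes and negative controls, bound GST-tagged P. falciparum DNA-binding domains were detected with Alexa488 anti-GST antibody and scanned at 488 nm. The domains had been expressed in E. coli, and binding took place in 1× PBS with 1% milk, 0.2 mg/ml BSA, 0.5% salmon testes DNA and 0.03% Triton X-100. Binding intensity is the highest Masliner-normalised natural-log median intensity across replicate spots of either probe orientation.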

Row | Sequence | gcPBM binding intensity (ln)
1 | ACGTATATTTTTACATGTACATATGTAAAAAATTTT [XGTACX_site4587] | 7.15
2 | TTATGATAATTTTGCACACACTTAGGAAAAATTATG [CACACA_site4949] | 7.5
3 | AAATAATATATATACACACACACATATATATATACA [CACACA_site554] | 7.16
4 | TTTTATTTATCATACACACACAGAAAAAAAAAAAAA [CACACA_site158] | 7.14
5 | GAATGTTTATTATATGCATGTTATATATATGAATAT [TGCATGCA_site4] | 7.02
6 | CCTTTCCTTTTATAAGTGCATATAACAAATGTATAC [GTGCAC_site9872] | 8.88
7 | AATAATGAAAAATCAAATAACCTAAATTACAACTGT [XGTACX_negctrl_site65] | 6.91
8 | TTTCACACTATTTCATGTACACATAAAATTATATAT [XGTACX_site8692] | 7.39
9 | TAAATATAATAAAAGTGTACTTACACTTACATATAA [XGTACX_site1206] | 6.83
10 | AACAGATAAAAGGGTACACACATATATACATGTACA [CACACA_site225] | 7.04
11 | ATATAATAAGGTTAAGCACACATATTACATATATAA [CACACA_site9110] | 7.09
12 | TTGTATATATTTCCTTGTACGTAATAATTCTTATTG [XGTACX_site3938] | 7.19
13 | TTTTATTCCGTTTCAAAATAAGAAAAAAAAAAAAAT [CACACA_negctrl_site1199] | 6.95
14 | TACTTCTCATTTGTTGTTGTATTTTAGGCATACCCT [XGTACX_negctrl_site385] | 6.96
15 | CTTATATATACGTGCACACATATATATAAGATATAT [CACACA_site1752] | 10
16 | AAAAATATAAATGACACACACTTAAAAACAAAGAAA [CACACA_site4540] | 6.84
17 | ATTTAAAAAAAAAAAAATAAATAACTTGAAAAACAA [GTGCAC_negctrl_site318] | 6.72
18 | AAGGATAATAGGTACACATGCAATATTCATATATAC [TGCATGCA_site523] | 7
19 | TTATATACATAAAAATGTACTTTTTATAAAATATAT [XGTACX_site8281] | 7.15
20 | AAGTTAGTATTCTGCTGTACTTCTATATATAAGTGT [XGTACX_site7678] | 7.1
21 | ACAACATTTCTCAAATGTACATAATATAATTTATAT [XGTACX_site3224] | 7
22 | TATTAATTCTTAAATTTTTTTTTTTAATTCCTAGGA [CACACA_negctrl_site879] | 6.54

Row | Sequence | gcPBM binding intensity (ln)
23 | GAATGAATCAATGTTTGTACTCAACAAATTATAAGG [XGTACX_site5122] | 7.06
24 | GCCTTCCTTCTAAATGCACACGGAAAGTATAAATGT [CACACA_site8797] | 7.88
25 | CAATAATTTTTTAAATGTACTTTATTATAATTTAAT [XGTACX_site135] | 6.8
26 | TATATATAATACAGTATGCACTATTTTTATTAAAAA | 8.8
27 | TTTTCTTACATCTTATAAAAAAAAATATATATTATA [GTGCAC_negctrl_site118] | 6.9
28 | GTCTAACAACCAAACGCACACACACTAATAAAAAAA [CACACA_site8026] | 7.91
29 | TATTTTAAAACAAAAATATAATTTCATAAAAATATA [CACACA_negctrl_site394] | 6.57
30 | TAATATATATATTTATGTACATATAAATTTTCTCCT [XGTACX_site4496] | 7.01
31 | ATATATCAAAAATGATGACATAAATATATTAATTTA [TGCATGCA_negctrl_site259] | 6.83
32 | ATAAAATAATCTTATGCACACCAAAAATTTATATAA [CACACA_site8332] | 7.89
33 | TTTTTGTAAAATAAACGTACAAAACAATTGTTCATT [XGTACX_site6537] | 6.94
34 | TATCTGTATGTATGTACACACAAAAAATGGAATATA [CACACA_site5947] | 7.31
35 | TATAAACCAATGAACACACAAACATATATATATATA [CACACA_site3168] | 8.88
36 | TCTTTTTATATTTATTGTACATAAAAAATAAAACAT [XGTACX_site4073] | 7.39
37 | TTTTTTTTTCTTTCTTTCTTTTGTAAAAACCTCAAA [CACACA_negctrl_site723] | 6.68
38 | ATATGTATATATAAAAGTACGCGTAAAAAAAAAAAA [XGTACX_site5377] | 6.99
39 | TAAATATATAAATACACACACATACACAAAAAAAAA [CACACA_site5890] | 6.92
40 | TATACACCCTAAAATACACACACACCCACCCATATA [CACACA_site9380] | 7.11
41 | AATCACAACAGACACACACACAAAAAAAAAAAAAAA [CACACA_site1442] | 7.24
42 | ATATGTTATATAAATATATATATATATATATATATA [TGCATGCA_negctrl_site594] | 9.55
43 | TTAATATAATAGAAGTGTACACACATATTTATGTGT [XGTACX_site6672] | 7.28
44 | TAATAATAAAAATAAACACACATATATCTGTATTTA [CACACA_site5572] | 6.71

From the supplement of paper PMC11417369
